# Source: the supplement of paper PMC3334620
# The full ranking holds about 33,000 sequences; the median of “E-score (-0.5 to 0.5)” is about -0.054, and the highest 2% start at about 0.39. The list shows a part of the results.
# Target: Ylr278c (UniProt Q05854)
# Test: PBM E-score (8-mer binding enrichment) (E-score (-0.5 to 0.5)); higher = stronger / more preferred TF binding; most listed sequences are background and not binding sites
# Conditions: protein concentration: 200 nM; construct: GST-DNA-binding domain
# Procedure, shortened: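 GST-tagged yeast TFs (full-length or DNA-binding domain) were made by PURExpress in vitro transcription/translation and applied at about 100-200 nM to universal all-10-mer Agilent arrays. The arrays were made double-stranded by primer extension, on fresh or once-stripped slides. Bound protein was detected with fluorescent anti-GST, and scans were normalised with masliner. Each ungapped eight-base word, pooled with its reverse complement, received an E-score (modified Wilcoxon-Mann-Whitney statistic) from the Universal PBM Analysis Suite.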
row,Sequence,PBM E-score
1,CGCATGCC,0.222
2,CACGATCA,-0.157
3,AGCTGAAA,0.107
4,GTAGGCCA,-0.115
5,AGATGCTC,0.0796
6,CAGTGGCG,0.0163
7,ACGTGTTG,-0.138
8,CGTCCCAG,-0.155
9,CGACATAA,-0.0327
10,ACCGATGG,0.0792
11,AGCTATAC,-0.0817
12,GAAGTTGC,-0.0868
13,CTCGCAGC,-0.0523
14,AGTTTTAG,-0.0243
15,GTTACTTA,-0.00147
16,GCGCCCGA,0.191
17,AAGACGCA,-0.074
18,TAGCGACA,-0.19
19,CACCAGAG,-0.294
20,AAATAAGG,0.0102
21,AGCTCCAC,-0.0221
22,AGGAAGAC,-0.357
23,ACACGATG,-0.234
24,GGTATAAC,-0.157
25,ACGCCTCA,-0.312

row,Sequence,PBM E-score
1,ATCGGCGC,0.326
2,GCATTAAC,0.126
3,TCGGGGCA,0.239
4,TCATCGGA,0.408
5,GTGCTTAA,-0.104
6,CCAGAAGG,-0.156
7,ACATTTTC,0.0708
8,GACCTCCC,-0.0871
9,TAGGATAA,-0.0758
10,CGCTAACC,0.102
11,ATCGTCAC,-0.152
12,GGACATGA,0.3
13,ATCCTAAA,-0.265
14,ACAACTAA,-0.0852
15,GCAAGTCA,-0.0449
16,ACTGACAA,-0.187
17,ACCTAATA,-0.0973
18,GTGACATA,-0.0799
19,CTCCAGAG,-0.0382
20,CCTCCTAG,-0.162
21,AGGACTGG,-0.199
22,AATTCAAA,-0.0352
23,ACCAAGGG,-0.236
24,GGGTGTAA,-0.00564
25,AGGGTGCC,-0.211

row,Sequence,PBM E-score
1,GGTCGCGA,0.119
2,ATAGTCAA,-0.232
3,CACAAAGG,-0.106
4,AGCAGACA,-0.248
5,ACGGACAT,0.392
6,CCACAGCC,-0.1
7,CCCAGTCC,-0.0128
8,CCCACTGA,-0.155
9,CACGGAAA,0.328
10,ATCACAAT,-0.0164
11,TAGATGGA,-0.28
12,GAGTCCGC,0.363
13,GGACGCAC,0.0423
14,GTAGAATA,-0.106
15,TCCACGCA,-0.041
16,ACGTGACG,-0.0621
17,CTAGCAAC,0.0469
18,CAGCTCGG,0.119
19,ACACGAAT,-0.00148
20,GTATCGGA,0.431
21,AAGCCAGA,-0.0477
22,AACCTAAT,-0.115
23,ACTACCGA,0.161
24,ATTCCGCG,0.439
25,AATATGAA,0.0372

row,Sequence,PBM E-score
1,CTGCCTGA,-0.149
2,ATCGTTGA,-0.0349
3,AGCATTAG,-0.142
4,ATCGTCAA,-0.074
5,CACCTTAG,0.015
6,CTCTCTGC,-0.0297
7,ACCCACGT,-0.231
8,AAACGGTA,0.0233
9,ACATTTAT,-0.143
10,GCTCTTTA,-0.0532
11,ACGGACTC,0.304
12,GCAACCCC,0.187
13,ACTGAGAA,-0.186
14,ATGACGAG,-0.153
15,ATAAATGG,-0.0989
16,CGGGATTA,0.406
17,GAATAGTA,-0.0594
18,CGTATCCA,-0.178
19,AGTAAATC,0.0481
20,GGATAAGA,0.00581
21,AACACGCC,0.137
22,GAAATGTC,0.116
23,AAGATTGA,-0.166
24,CACTCCCG,0.193
25,CGGACAAG,0.383

row,Sequence,PBM E-score
1,CTAAGAAG,-0.0922
2,CAAACCCA,-0.0996
3,GAGCGACC,-0.108
4,AATTATCC,0.0902
5,ACATGGTA,-0.0615
6,ATCAAAGG,-0.146
7,ATGAGACC,-0.188
8,CAAGGGCA,-0.252
9,ACGCCATC,-0.0617
10,CCACCGAA,-0.0526
11,ATTCATGA,-0.193
12,ATGGCCAA,-0.09
13,GTGTAATA,0.0208
14,GCGGGCCA,0.0635
15,TACATTAA,-0.0987
16,AGATTTAG,-0.0161
17,CTCTTGTC,-0.064
18,TACTGGGA,-0.0573
19,TGTGTTAA,-0.173
20,AGCGAGGG,-0.251
21,AGTGCGAC,0.0241
22,CGAAAGAA,0.0687
23,ACCCGAGG,-0.122
24,CCATTATA,-0.00996
25,ATGGTTTA,0.0306

row,Sequence,PBM E-score
1,CTCGTTGC,-0.0897
2,GTACAACA,0.014
3,GTACACAA,-0.083
4,CTATGACA,-0.237
5,GCAGGAAC,-0.047
6,ATACATGC,-0.165
7,CGCGTTCA,0.115
8,CATGCCGG,0.368
9,CGTCTTGA,0.0236
10,AACAGAAA,-0.134
11,ACGATGGC,-0.144
12,CGAGCCTC,-0.0862
13,CCGCAGGA,0.141
14,ACGCCTCT,-0.319
15,CGCCGATA,0.37
16,ACCGAAGC,0.0369
17,ATCGCGCG,0.243
18,ACGAAGGC,-0.151
19,AGGCGACC,-0.0726
20,GATCATCA,-0.231
21,ACAGAAGT,-0.269
22,ATCGATCA,-0.00795
23,TCACCTGA,-0.193
24,GCCAGCCC,-0.141
25,CCATGGAC,-0.0535

row,Sequence,PBM E-score
1,CCGTAAAC,0.163
2,ATGTGGGA,-0.101
3,AATTTGCG,0.127
4,GCTGTACA,-0.114
5,GAACATTC,0.0882
6,CTTGACAA,-0.0658
7,GAGGCGAA,-0.0583
8,CGAGGGTC,0.124
9,GGCCTGAC,0.117
10,ACATTAGG,-0.22
11,CACTGGAA,-0.272
12,GACAAGCA,-0.0953
13,ATTCTTTC,0.0944
14,GAGCGAGA,0.263
15,AAGCTCGT,-0.288
16,ACTGGAAA,-0.0873
17,AAGCACCA,-0.265
18,AATGCCCG,0.213
19,ACCAATAG,-0.0921
20,CCTCTGCC,-0.303
21,AGTGCTTG,-0.191
22,CGAATGTC,0.101
